# The campaign covered roughly 310,000 compounds. About 2,200 (0.71%) showed an effect of 50% or more. The effect is printed as a negative number. Some of the results follow.
# Biological target: human ether-à-go-go-related gene (hERG) potassium channel (human, UniProt Q12809)
# Assay: primary screen, population patch clamp on CHO cells stably expressing hERG
# human ether-à-go-go-related gene (hERG) potassium channel, sequence (Q12809 whole entry, looked up): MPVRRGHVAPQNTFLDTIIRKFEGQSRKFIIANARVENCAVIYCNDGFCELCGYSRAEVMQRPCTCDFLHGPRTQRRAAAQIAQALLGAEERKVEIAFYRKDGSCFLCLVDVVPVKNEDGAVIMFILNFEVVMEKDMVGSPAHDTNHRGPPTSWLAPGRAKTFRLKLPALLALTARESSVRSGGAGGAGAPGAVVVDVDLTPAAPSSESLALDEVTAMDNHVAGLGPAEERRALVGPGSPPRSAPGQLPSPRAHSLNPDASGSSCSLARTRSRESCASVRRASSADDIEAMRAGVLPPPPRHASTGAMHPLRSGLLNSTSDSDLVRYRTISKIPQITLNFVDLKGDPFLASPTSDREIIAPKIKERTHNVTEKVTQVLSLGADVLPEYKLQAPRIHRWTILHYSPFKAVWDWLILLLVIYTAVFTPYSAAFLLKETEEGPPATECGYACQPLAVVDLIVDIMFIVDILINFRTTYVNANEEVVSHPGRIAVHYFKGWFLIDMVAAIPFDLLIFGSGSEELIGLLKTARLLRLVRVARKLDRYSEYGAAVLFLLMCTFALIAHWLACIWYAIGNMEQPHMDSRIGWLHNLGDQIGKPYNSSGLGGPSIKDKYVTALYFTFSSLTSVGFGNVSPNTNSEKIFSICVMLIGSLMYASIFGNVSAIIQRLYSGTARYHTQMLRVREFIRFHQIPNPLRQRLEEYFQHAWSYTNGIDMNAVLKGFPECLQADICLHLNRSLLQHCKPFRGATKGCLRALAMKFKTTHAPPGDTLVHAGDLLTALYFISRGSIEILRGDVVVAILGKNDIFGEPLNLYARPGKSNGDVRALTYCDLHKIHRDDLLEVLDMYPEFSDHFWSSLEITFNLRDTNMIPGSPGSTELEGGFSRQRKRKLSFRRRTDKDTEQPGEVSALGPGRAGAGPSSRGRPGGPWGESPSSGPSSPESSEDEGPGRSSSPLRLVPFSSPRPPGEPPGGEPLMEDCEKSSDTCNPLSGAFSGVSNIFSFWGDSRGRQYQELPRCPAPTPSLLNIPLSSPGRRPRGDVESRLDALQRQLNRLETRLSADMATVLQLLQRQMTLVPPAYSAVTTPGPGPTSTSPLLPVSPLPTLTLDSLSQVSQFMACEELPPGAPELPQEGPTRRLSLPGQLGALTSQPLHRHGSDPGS
row,Compound,"hERG current change (%, negative = inhibition) at 1uM [%]"
1,COc1ccccc1NC(=O)C(C)OC(=O)CCSc1ccc(F)cc1 (stereo not shown),5.73
2,CC(=O)Nc1ccc(S(=O)(=O)NNC(=O)c2cccc([N+](=O)[O-])c2)cc1,12.6
3,CC(C(=O)N1CCCc2ccccc21)N1C(=O)c2ccccc2C1=O (stereo not shown),-9.98
4,CC(C)(C)C1CCC(=NNC(=O)C(=O)NC2CCCCC2)CC1 (stereo not shown),7.44
5,Cc1ccc(S(=O)(=O)N(C)C)cc1NC(=O)COC(=O)CCC(=O)c1cccs1,3.75
6,CC(C)(C)[C@@H]1C=C(C(=O)N2CCOCC2)O[C@H](OCc2ccc(CO)cc2)C1,2.37
7,Cc1ccc(C(=O)NNC(=O)C2CCN(Cc3ccc(Cl)c(Cl)c3)CC2)cc1,9.55
8,CCc1ccc(-n2c(O)c(/C=N/NC(=O)c3ccncc3)c(=O)[nH]c2=O)cc1,12.1
9,O=C(Nc1ccc(N2CCN(C(=O)c3ccco3)CC2)cc1)c1cccs1,-2.67
10,Cc1cccc(C)c1NC(=O)CNC(=O)C(Cc1ccccc1)NC(=O)c1ccccc1 (stereo not shown),17.4
11,Cc1ccccc1NC(=O)CN1C(=O)CSc2ccccc21,16.7
12,Cc1nn(CC(=O)Nc2ccc(Cl)cc2Cl)c(=O)c2ccccc12,12.8
13,CN(C)CCn1c2c(c(SCC(=O)NCc3ccccc3)nc1=O)CCCC2,5.22
14,CCCCc1cc(=O)oc2c(C)c(OCC(=O)N3CCC(C(=O)O)(c4ccccc4)CC3)ccc12,9.44
15,CCN(CC)c1ccc2cc(C=O)c(=O)oc2c1,29.7
16,Cc1ccc(NC(=O)C2C3C=CC4(O3)C2C(=O)N(CCCN2CCCCC2)C4C(=O)NC2CCCCC2)cc1C (stereo not shown),22.2
17,CC(C(=O)Nc1ccc(Cl)cc1Cl)N1C(=O)NC2(CCCCCCC2)C1=O (stereo not shown),9.52
18,Cc1cccc(N2CCN(C(=O)c3ccc4c(c3)NC(=O)C(CSCc3cccc(F)c3)N4)CC2C)c1 (stereo not shown),11.6
19,O=C(Cc1cccs1)N(Cc1cccs1)C1(C(=O)NC2CCCCC2)CCCCC1,6.3
20,CCC(=O)Nc1cccc(Oc2nc(C)cc(C)c2C#N)c1,4.77
21,CN(C)CCNC(=O)c1onc(CSc2ccc(F)c(F)c2)c1C(=O)NCCN(C)C,14.5
22,Clc1ccc(-c2nnc(-c3cccnc3)o2)cc1,3.21

row,Compound,"hERG current change (%, negative = inhibition) at 1uM [%]"
1,COc1ccc2[nH]c(CN3CCC(CO)(CCOc4ccccc4)CC3)c(C)c2c1,9.37
2,CN(CC(=O)Nc1ccc(N2CCOCC2)cc1)C(=O)CC(c1ccccc1)c1ccccc1,11.4
3,Cc1ccc(CNC(=O)[C@@H](NC(=O)C2CCN(C(=O)[C@@H](N)CC(C)C)CC2)C(C)C)cc1,18.8
4,O=C(NC1CCCN(Cc2ccc(Cl)cc2)C1)C1CCC1 (stereo not shown),6.34
5,CCOc1ccc(S(=O)(=O)NCCC(=O)NCC(c2ccccc2OC)N2CCCC2)cc1 (stereo not shown),7.53
6,CCc1ccc([C@@H]2CC=C(C(=O)O)[C@H](c3ccc(F)cc3)N2S(=O)(=O)c2ccc(C)cc2)cc1,14.1
7,Cc1c(NC(=O)COC(=O)C2(c3ccccc3F)CCCC2)c(=O)n(-c2ccccc2)n1C,9.55
8,COc1ccc(-c2cn3ccsc3n2)cc1,6.43
9,O=C(CCC1CCCC1)NCCS(=O)(=O)N1CCN(c2ccccc2F)CC1,4
10,c1ccc(CNCCC(Cc2ccccc2)c2ccco2)cc1 (stereo not shown),5.58
11,CCCCN(C)C(=O)c1sc2ncn(CC)c(=O)c2c1C,1.68
12,Cl.OCCNCc1cccc(OCc2ccccc2Cl)c1,-2.16
13,COc1cc(CC(=O)OCC(=O)Nc2ccc(S(=O)(=O)N3CCCC3)cc2)cc(OC)c1OC,10.2
14,O=C(CC1C(=O)NCCN1CCCc1ccccc1)NCCc1ccccc1Cl (stereo not shown),3.91
15,O=[N+]([O-])c1cccc2c(S(=O)(=O)N3CCCCC3)cccc12,14
16,CC(C)N1CCN(Cc2ccncc2)CC1CCO (stereo not shown),12.2
17,COC(=O)CSc1nnc(C2COc3ccccc3O2)n1-c1ccccc1 (stereo not shown),11.6
18,Cn1cc(C(=O)c2ccc(Cl)cc2Cl)cc1C(=O)N/N=C(\N)COc1ccc(Cl)cc1,1.05
19,COC(=O)c1ccc(NC(=O)C2CCCN(S(=O)(=O)c3cnc[nH]3)C2)cc1 (stereo not shown),5.36
20,CC1c2[nH]c3ccccc3c2C[C@H]2C(=O)N(CCO)CC(=O)N12 (stereo partly shown),3.81
21,O=c1cc(CO)oc(C(Nc2ccccn2)c2ccccc2F)c1O (stereo not shown),16
22,Cc1ccc(Cl)cc1N1CCN(CC(=O)Nc2ccc3[nH]c(=O)[nH]c3c2)CC1,16.5

row,Compound,"hERG current change (%, negative = inhibition) at 1uM [%]"
1,Cn1nc(C(F)(F)F)c(C(=O)Nc2ccc(F)cc2F)c1Sc1cccc(C(F)(F)F)c1,7.19
2,Cc1cc(C(=O)CSc2ccccc2)cc(C)c1O,14.9
3,OCCCNC(=S)Nc1ccc2nc(-c3ccccn3)c(-c3ccccn3)nc2c1,9.44
4,CCOC(=O)N1CCC(c2nc3ccccc3[nH]2)CC1,14.6
5,O=C(Nc1ccc(Cl)cc1)Nc1nnc(CSCc2ccccc2)s1,15.6
6,CC1CCCN(C(=O)C2CCCN(S(=O)(=O)c3cccc4nsnc34)C2)C1 (stereo not shown),9.22
7,CN1CCN(C(=O)/C(=C/c2ccc(F)cc2)NC(=O)c2ccccc2)CC1,-80.8
8,CCC(C)(O)c1[nH]c2ccc(C(=O)OC)cc2c1C (stereo not shown),8.51
9,C[C@H](NC(=O)[C@H]1N2C(=O)c3ccccc3C2SC1(C)C)C(=O)N1CCN(C)CC1 (stereo partly shown),10.4
10,NC(=O)C1CCCN(CC(=O)Nc2ccccc2C(=O)NC2CC2)C1 (stereo not shown),5.06
11,CC(=O)Nc1cc2ccccc2oc1=O,11.2
12,Cc1ccc(C)c(Oc2ncnc(N)c2[N+](=O)[O-])c1,6.85
13,COc1ccc(/C=C/C(=O)Nc2cccc(S(=O)(=O)NC3=NCCCCC3)c2)cc1OC,12.2
14,C=CCNC(=O)c1c(N)n(-c2cccc(S(N)(=O)=O)c2)c2nc3ccccc3nc12,3.17
15,CN1C(=O)c2ccc(N(C)C)cc2C1=O,12.4
16,Cc1c(C(=O)N/N=C/c2ccncc2)no[n+]1[O-],13.8
17,CCCCCCCCCCCCCC(=O)O,2.26
18,O=c1[nH]c(O)c(/C=C2\C=Nc3ccc(OCc4ccccc4)cc32)c(=O)[nH]1,19.8
19,C#CCOCCOCCOCCNc1nc(N2CCN(C(=O)[C@H](Cc3cc4ccccc4[nH]3)n3cc([C@@H](N)C(C)CC)nn3)CC2)nc(N2CCN(C(=O)[C@H](CCCCN)n3cc([C@@H](N)CO)nn3)CC2)n1.Cl (stereo partly shown),13.4
20,Cc1cc(C)n(/N=C/c2ccco2)c(=O)c1C#N,5.76
21,Cc1c(N=C2SCC(=O)N2/N=C/c2ccccc2Cl)c(=O)n(-c2ccccc2)n1C,9.32
22,O=C(C1=C(O)C(=O)N(CC2CCCO2)C1c1ccccc1Cl)c1ccco1 (stereo not shown),13.2

row,Compound,"hERG current change (%, negative = inhibition) at 1uM [%]"
1,CCSc1ccc2cc(OC)ccc2[n+]1CC.[I-],11.5
2,Cc1ccc(NS(=O)(=O)c2cc3c4c(cccc4c2)C(=O)NC3=O)cc1C,4.94
3,O=C(NCc1ccccc1Cl)C1CCC(CNc2nc(=S)[nH]c3ccccc23)CC1 (stereo not shown),9.06
4,CSc1nc(N)nc(SCC(=O)C23CC4CC(CC(C4)C2)C3)c1C#N,5.26
5,COc1ccc(C(=O)OCC2CC(c3ccccc3)=NO2)cc1OC (stereo not shown),2.83
6,COc1cc(OC)nc(NC(=O)CSc2nc3ccccc3o2)n1,9.47
7,CC(C)c1ccc(NS(=O)(=O)c2ccc3[nH]cc(C(=O)N4CCC(C(N)=O)CC4)c(=O)c3c2)cc1,19.6
8,O=C(c1ccccc1)N1CCN(C(=O)c2ccncc2)CC1,16.4
9,CCC(C)(C)NC(=O)CCCSc1nc2ccccc2s1,16.9
10,COc1ccc(-c2cc(C(F)(F)F)nc(SCC(=O)Nc3ccc4c(c3)OCO4)n2)cc1,5.95
11,Cc1cc(C)c(C(=O)NNC(=O)c2cccnc2)c(C)c1,9.82
12,Cc1cccc(NS(=O)(=O)c2cccc(C(=O)NCC(c3ccco3)N(C)C)c2)c1 (stereo not shown),11.7
13,COc1ccc(CN2CCN(CC=C(C)C)C(CCO)C2)cc1Cn1cccn1 (stereo not shown),7.96
14,COc1ccc2c(c1)[C@]13CCCCC1C(C2)N(C)CC3 (stereo partly shown),7.88
15,CC1=NN(C(N)=S)C(C)(C)C1,12.6
16,I.c1ccc2c(c1)nc(N1CCCCCC1)c1ccccc12,11.1
17,CCN(CC)S(=O)(=O)c1ccc(-c2csc(C)n2)cc1,10.9
18,Cn1c(CNC(=O)c2ccc(Cl)cc2)nnc1SCC(=O)Nc1sc2c(c1C#N)CCCC2,0.949
19,CCN(CC(=O)NC1CCS(=O)(=O)C1)c1nc(-c2cccnc2)nc2ccccc12 (stereo not shown),6.68

# — article PMC4336329 (PLoS ONE, 2015)
